The test addresses T1, PHGDH (Homo sapiens, UniProt O43175).
T1 sequence (O43175 1-533): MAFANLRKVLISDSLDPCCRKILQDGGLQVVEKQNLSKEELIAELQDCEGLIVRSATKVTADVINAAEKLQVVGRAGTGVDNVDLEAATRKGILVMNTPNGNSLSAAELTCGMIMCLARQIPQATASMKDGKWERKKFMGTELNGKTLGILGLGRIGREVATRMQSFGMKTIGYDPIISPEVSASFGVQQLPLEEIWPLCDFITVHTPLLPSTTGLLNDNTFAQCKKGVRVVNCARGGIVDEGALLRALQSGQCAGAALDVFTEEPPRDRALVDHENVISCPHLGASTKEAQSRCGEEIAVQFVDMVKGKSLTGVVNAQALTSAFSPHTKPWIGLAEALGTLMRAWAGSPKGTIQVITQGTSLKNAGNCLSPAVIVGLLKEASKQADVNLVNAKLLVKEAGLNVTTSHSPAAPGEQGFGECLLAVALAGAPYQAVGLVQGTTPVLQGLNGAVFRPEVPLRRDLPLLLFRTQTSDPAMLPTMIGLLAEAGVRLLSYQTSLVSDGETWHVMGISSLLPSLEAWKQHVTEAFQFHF
Format: biochemical. To be noted: substrates of PHGDH, optimized conditions; read-out: Experimental Km.

As usually defined, the Km is the concentration of substrate that gives half-maximal velocity. Regarding `NC(=O)c1ccc[n+]([C@@H]2O[C@H](COP(=O)([O-])OP(=O)(O)OC[C@H]3O[C@@H](n4cnc5c(N)ncnc54)[C@H](O)[C@@H]3O)[C@@H](O)[C@H]2O)c1` [NAD^+], the Km stood at 30.4 ± 4.3 µM.

Values taken from article PMC7168936 (Pharmaceuticals, 2020).
